# Measured values: the BET-seq Pho4 binding data (Le et al. 2018)
# The list shows a part of the results. The energies were worked out here from pooled read counts, against the library average; single values are noisy.
# Molecular target: T1, Pho4 (S. cerevisiae) (UniProt P07270)
# T1 sequence: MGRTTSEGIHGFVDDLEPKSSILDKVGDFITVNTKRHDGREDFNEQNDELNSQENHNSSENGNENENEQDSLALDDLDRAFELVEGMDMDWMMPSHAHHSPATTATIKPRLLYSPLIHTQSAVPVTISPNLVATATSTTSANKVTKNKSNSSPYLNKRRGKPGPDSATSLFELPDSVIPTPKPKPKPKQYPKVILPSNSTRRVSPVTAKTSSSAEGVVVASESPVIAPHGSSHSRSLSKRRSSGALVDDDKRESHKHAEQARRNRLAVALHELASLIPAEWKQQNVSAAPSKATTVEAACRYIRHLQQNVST
# Assay: relative binding free energy (BET-seq); higher = weaker binding
# Conditions: reference: library average
row,Sequence,relative binding free energy
1,TATTTCACGTGCTGGA,0.22 kcal/mol
2,GTGGACACGTGGGTCA,-0.21 kcal/mol
3,GTCGGCACGTGGAGGT,-0.08 kcal/mol
4,GCGTTCACGTGAGTTG,0.49 kcal/mol
5,TACATCACGTGTGGTA,0 kcal/mol
6,AGAATCACGTGGAGTA,0.19 kcal/mol
7,ATAATCACGTGTGTAT,0.12 kcal/mol
8,CGTGTCACGTGTATGA,0.05 kcal/mol
9,GTGTGCACGTGCTGGT,-0.09 kcal/mol
10,GTGGACACGTGAAAGG,0.24 kcal/mol
11,TTAATCACGTGTATTT,0.17 kcal/mol
12,AAGGTCACGTGTATTA,0.09 kcal/mol
13,GTAGGCACGTGTGTTG,-0.07 kcal/mol
14,TGGAGCACGTGGGAGC,-0.18 kcal/mol
15,GGGCTCACGTGTTGGG,0.22 kcal/mol
16,ATTTTCACGTGTATGC,0.15 kcal/mol
17,TTTATCACGTGATGGT,0.31 kcal/mol
18,TGTATCACGTGTCTGA,0.11 kcal/mol
19,AGGATCACGTGTCTTA,0.19 kcal/mol
20,TTAGGCACGTGAGGCC,0.07 kcal/mol
21,GGTCACACGTGCTGGG,-0.01 kcal/mol
22,TGGGTCACGTGCGGGT,0.01 kcal/mol
23,GCTGACACGTGTGGCG,0.14 kcal/mol
24,TAAGACACGTGTGAGG,0.16 kcal/mol
25,GTGTTCACGTGAGACG,0.26 kcal/mol

row,Sequence,relative binding free energy
1,TTTAGCACGTGTGCGC,-0.17 kcal/mol
2,TCTGTCACGTGTTGGC,0.23 kcal/mol
3,GGGTTCACGTGCGTTG,0.29 kcal/mol
4,GGTGCCACGTGGATGT,-0.11 kcal/mol
5,TGAGGCACGTGGAGCA,-0.19 kcal/mol
6,AATCTCACGTGTGGGG,0.28 kcal/mol
7,TGTCACACGTGTAGAG,0.24 kcal/mol
8,TGGAACACGTGTGTTG,-0.03 kcal/mol
9,TACATCACGTGTAGTG,0.16 kcal/mol
10,CATTTCACGTGGAGTG,0.37 kcal/mol
11,TACTGCACGTGGGAGT,-0.14 kcal/mol
12,AGAGCCACGTGGTGGT,-0.21 kcal/mol
13,TGCGGCACGTGGGGAT,-0.05 kcal/mol
14,ATTTGCACGTGGGATC,0.06 kcal/mol
15,TTTATCACGTGTCCGG,0.16 kcal/mol
16,TGGGTCACGTGTTCGG,0.12 kcal/mol
17,AGGATCACGTGAGATG,0.41 kcal/mol
18,TGTACCACGTGCGGTG,-0.11 kcal/mol
19,GGGGCCACGTGTGTTC,-0.02 kcal/mol
20,GAGTGCACGTGGTCGG,-0.1 kcal/mol
21,GTTCGCACGTGGGGAA,-0.13 kcal/mol
22,TGTGGCACGTGCGTGA,-0.15 kcal/mol
23,ATGGGCACGTGGTGTA,-0.15 kcal/mol
24,TTAGTCACGTGGGGTA,-0.11 kcal/mol
25,TAGCGCACGTGGATGT,-0.13 kcal/mol

row,Sequence,relative binding free energy
1,CGTTTCACGTGCGTTG,0.12 kcal/mol
2,TCAGTCACGTGTTTTC,0.22 kcal/mol
3,TGCGTCACGTGGGGTG,-0.05 kcal/mol
4,AGTAGCACGTGGGGGG,-0.22 kcal/mol
5,TTCCTCACGTGTTGTG,0.04 kcal/mol
6,TTTATCACGTGGTATC,0.11 kcal/mol
7,AGTTTCACGTGAGTAA,0.46 kcal/mol
8,CATGTCACGTGTGTTC,0.21 kcal/mol
9,ACGTGCACGTGCAGTT,0.15 kcal/mol
10,GTGTCCACGTGTTGGA,0.14 kcal/mol
11,CAGGGCACGTGATGGA,0.1 kcal/mol
12,GCAGGCACGTGGAGTT,-0.17 kcal/mol
13,TTGAGCACGTGTGATC,0.03 kcal/mol
14,TGGGCCACGTGAGTTG,0.06 kcal/mol
15,GATCGCACGTGGCGGG,-0.17 kcal/mol
16,TTAATCACGTGGATCG,0.24 kcal/mol
17,TGGTGCACGTGCGGGA,0.03 kcal/mol
18,TTGTCCACGTGTGTAT,-0.08 kcal/mol
19,CTTAACACGTGGAGTT,0.11 kcal/mol
20,TTGAGCACGTGTATGG,-0.14 kcal/mol
21,AGGGACACGTGGAGTT,0.11 kcal/mol
22,AGGAGCACGTGGTTCG,-0.07 kcal/mol
23,CGAGTCACGTGGTTAG,0 kcal/mol
